{"source": "paper doi:10.1101/148981", "about": "(bioRxiv, 2017)", "proteins": {"B1": {"name": "recombinant CaMKIIα holoenzyme (enzyme)", "chain": "not shown"}}, "target": "the molecule itself", "experiment": "negative-stain EM", "data": [{"protein": "B1", "values": [{"measurement": "stoichiometry N", "value": 12}]}]}
